From PubChem BioAssay AID686979 (National Center for Advancing Translational Sciences (NCATS), 2013)
About 50,000 (12%) of roughly 420,000 compounds were called active. The inconclusive results got no clear call from the source; some entries with a clear call stand among them for comparison. Calls follow the shape of the dose curve; as a rule, active = well fitted inhibition curve with a large enough effect; inconclusive = small, poorly fitted or top-dose-only effect; inactive = flat fitted curve, though single readings scatter. No potency is given beside an inconclusive call; the fits are too rough.

assay: qHTS for Inhibitors of human tyrosyl-DNA phosphodiesterase 1 (TDP1): qHTS in cells in presence of CPT; conditions: chicken DT40 Tdp1-/-;hTDP1 cells + 20 nM CPT, ATP luminescence, 48 h; activity change, negative = growth inhibition: at 46.2 µM (top of the series); also: nearly all actives have a fitted effect of over 55% in size
How it was run: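 Chicken DT40 Tdp1-/- cells complemented with human TDP1, 400 cells/well, exposed to compounds plus 20 nM camptothecin for at least 48 h at 37 C; viability read as ATP content by CellTiter-Glo luminescence.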
% is scaled to controls: 0 for no effect and ±100 for the full control effect; potency is read from the fitted curve at half-maximal effect; tags tell the direction and shape of the fitted curve.

SMILES | Potency | activity change, negative = growth inhibition
CCCCOc1ccccc1NC(=O)CC1Nc2ccccc2NC1=O (stereo unspecified) | inconclusive [inhibitor, single point] | 
CC(C)CC(=O)NC(=S)Nc1nc(-c2ccccc2)cs1 | inconclusive [inhibitor, single point] | 
COC(=O)c1ccccc1NC(=O)c1ccc2nc(Cc3ccccc3)oc2c1 | inconclusive [inhibitor, single point] | 
Nc1nnc(SCC(=O)Nc2ccc3nc(SCC(=O)Nc4ccccc4)sc3c2)s1 | active: 13 µM | 
COC(=O)c1ccccc1NC(=O)c1nc(S(=O)(=O)Cc2cccc(C)c2)ncc1Cl | active: 2.91 µM | 
O=C(CCCn1c(=O)c2ccccc2n(Cc2ccc(F)cc2Cl)c1=O)NCCc1ccc(Cl)cc1 | inconclusive [inhibitor, single point] | 
O=C(NCc1ccc(Cl)cc1)c1ccc(-c2ccc(F)c(F)c2)c2ccoc12 | inconclusive [inhibitor, single point] | 
CCCNC(=O)c1ccc(N2CCC3(CC2)CC(c2cccc(Br)c2)=NO3)c(NC(=O)c2c(Cl)cccc2Cl)c1 |  | inactive: -9.52%
CCn1ncc(C(=O)Nc2cccc(Cl)c2)c1C |  | inactive: 15.3%
COCCNc1nc(NCc2cccc(OC)c2)c2sc(-c3ccccc3)cc2n1 | active: 18.4 µM | 
O=C(O)c1ccccc1C(=O)Nc1ccc(-n2nc(C(F)(F)F)cc2C(F)(F)F)cc1 |  | inactive: 15.2%
C=C(C)CNc1cc(S(=O)(=O)N2CCOCC2)ccc1Oc1ccccc1 | inconclusive [inhibitor, single point] | 
CC(=O)c1ccc(NC(=O)C(C)n2nc(-c3ccccc3)c3cc(Cl)ccc32)cc1 (stereo unspecified) | inconclusive [inhibitor, single point] | 
CNc1nc(Oc2ccc3sc(C)nc3c2)c2sccc2n1 | active: 20.6 µM | 
COc1ccc(CNC(=O)c2ccc(-n3ccnc3)c3ccoc23)cc1OC | active: 18.4 µM | 
CCOc1cccc(-c2c(C(=O)N/N=C(\C)c3cccs3)nnn2-c2nonc2N)c1 | inconclusive [inhibitor, single point] | 
CN(C)CCCN(Cc1cc2cc3c(cc2[nH]c1=O)OCO3)C(=S)Nc1cccc(Cl)c1 | inconclusive [inhibitor, single point] | 
Cc1ccccc1NC(=O)OCc1ccccc1 |  | inactive: 24.6%
Cc1cc(C)n(Cc2ccc(C(=O)NCCC3=CCCCC3)o2)n1 | inconclusive [inhibitor, single point] | 
OC(CN(c1ccccc1)c1ccccc1)Cn1cnc2ccccc21 (stereo unspecified) | inconclusive [inhibitor, single point] | 
CCCCCCCCN=C1NC(=O)CS1 | inconclusive [inhibitor, single point] | 
CCOC(=O)c1c(C)[nH]c(O)c1C=Nc1ccc(Cl)cc1 | inconclusive [inhibitor, single point] | 
CC(=O)c1ccc(Oc2cc(C)nc(NCc3ccccc3)n2)cc1 | active: 20.6 µM | 

SMILES | Potency | activity change, negative = growth inhibition
C[C@H]1CN([C@@H](C)CO)C(=O)Cc2cc(NC(=O)CCC(F)(F)F)ccc2O[C@H]1CN(C)Cc1ccc(-c2ccccc2)cc1 | inconclusive [inhibitor, single point] | 
CCOc1ccc(-c2cc(-c3nc(-c4cc(OC)c(OC)c(OC)c4)no3)[nH]n2)cc1Cl | active: 5.8 µM | 
CC1=CC(C)(C)[N+](C)(C)c2ccccc21 | inconclusive [inhibitor, single point] | 
CC(=O)Nc1ccc(NC(=O)c2ccc(COc3ccc(Cl)cc3Cl)o2)cc1 | active: 16.4 µM | 
Cc1cccc(NC(=O)c2c(C)cc(C)nc2SCC(=O)Nc2c(C)cc(C)cc2C)c1 | inconclusive [inhibitor, single point] | 
Cc1ccc2c(C)c(C(=O)N(C)Cc3ccncn3)oc2c1C |  | inactive: -21.4%
O=C(c1ccco1)N1CCN(C(=O)c2cc(-c3ccccc3)nc3ccccc23)CC1 | inconclusive [inhibitor, single point] | 
Clc1ccc(CSc2nnc(-c3c[nH]c4ccccc34)o2)cc1 | inconclusive [inhibitor, partial curve, poor fit] | 
Nc1nc(Nc2cccc(F)c2)nc(NCCO)c1[N+](=O)[O-] | inconclusive [inhibitor, single point] | 
Cc1nc([N+](=O)[O-])c(C(=O)OCc2ccccc2F)n1C |  | inactive: 8.67%
COC(=O)c1cccc(NC(=O)Nc2ccc(Cl)cc2Cl)c1 | inconclusive [inhibitor, single point] | 
Cc1ccc(N(CC(=O)NCC2CCCO2)C(=O)CCC(=O)Nc2nccs2)cc1 (stereo unspecified) |  | inactive: 5.96%
CCOC(=O)N1CCN(C(=O)c2ccc(C)c(S(=O)(=O)N3CCCCC3)c2)CC1 | inconclusive [inhibitor, single point] | 
COc1ccc(C)cc1NC(=O)C1CCN(S(=O)(=O)c2ccc3[nH]c4c(c3c2)CCCCC4)CC1 |  | inactive: -24.7%
O=C(NCc1ccco1)c1cccc2ccccc12 |  | inactive: 13.9%
O=c1oc(-c2cccs2)nc2c1cnn2-c1ccccc1 | inconclusive [inhibitor, single point] | 
Cc1occc1C(=O)Nc1ccc2c(c1)CCC2 | inconclusive [inhibitor, partial curve] | 
CC(C)CN1C(=O)C(=Nc2cccnc2)c2ccccc21 | active: 3.66 µM | 
COc1ccc(NC(=O)C2(C)Cc3c(-c4ccccc4)ccnc3O2)cn1 (stereo unspecified) | active: 5.8 µM | 
CCOC(=O)CC(S(=O)(=O)c1ccccc1)S(=O)(=O)c1ccccc1 | active: 0.58 µM | 
CC(C)c1nnc(NC(=O)CCC(=O)N2CCN(c3ccc(Cl)cc3)CC2)s1 | inconclusive [inhibitor, partial curve, poor fit] | 
Cc1cc(C)cc(NC(=O)CCCN2C(=O)COc3ccc(C)cc32)c1 | inconclusive [inhibitor, single point] | 
COc1ccc(CC(=O)NC2CCN(Cc3nnnn3C(C)(C)C)CC2)cc1OC |  | inactive: -4.69%
